Data published in ChEMBL document CHEMBL4888484, “Replenishing the malaria drug discovery pipeline: Screening and hit evaluation of the MMV Hit Generation Library 1 (HGL1) against asexual blood stage Plasmodium falciparum ,using a nano luciferase reporter read-out” (2022).
About 540 (0.36%) of roughly 150,000 compounds showed an effect of 50% or more. The list shows a part of the results.

Each compound was assayed on Plasmodium falciparum (assay: Primary screen in NF54 nanoGlo assay, in single point, at 2uM, 72h; a lower Z score goes with more inhibition). Details: timepoint 72 hour.
Type: functional, Erythrocyte

How did the “% Inhibition” value turn out when Cc1ccccc1Cn1nnc2cc(C(=O)N3CCCCC3)ccc21 was run?
Its value is -23%.

And the Z score?
The Z score was 2.34.

With COCc1cc(CNc2ccc(Cl)cn2)no1 as the compound, how does the “% Inhibition” value read?
Its value is -5%.

And the Z score?
Its Z score is 0.74.

With COC1(C(=O)Nc2cccc3c2CCO3)CCOCC1 as the compound, how does the “% Inhibition” value read?
Its value is -12%.

What about the Z score of the same compound?
Its Z score is 1.88.

How did the “% Inhibition” value turn out when CC(C)c1ocnc1C(=O)N[C@@H](C)c1nc(-c2ccncc2)cs1 was run?
Its value is -10%.

And the Z score?
Its Z score is 1.44.

What does the source list for Cc1cc(N2CCC(CNC(=O)c3scnc3C)CC2)c2ccccc2n1?
% Inhibition: 1%; Z score: -0.21

How did the “% Inhibition” value turn out when CCc1nnc(NC(=O)Cn2nc(C)cc2C)s1 was run?
Its value is 2%.

What about the Z score of the same compound?
Its Z score is -0.27.

Which “% Inhibition” value does the source give for CO[C@@H](CC(C)C)CS(=O)(=O)N(C)c1ccn(C)n1 here?
The value was -13%.

And the Z score?
Its Z score is 1.26.

For CCc1cc(N(C)Cc2ncc(Br)cn2)nc(C)n1, which “% Inhibition” value is on record?
The value was -4%.

What about the Z score of the same compound?
Its Z score is 0.68.

For Cc1ccc(C(=O)N2CCC(COc3ccc(C(=O)N4CCOCC4)cc3)CC2)s1, which “% Inhibition” value is on record?
Its value is 1%.

And the Z score?
Its Z score is -0.19.

Which “% Inhibition” value does the source give for COC[C@H]1CC[C@H]1NC(=O)c1oc(CO)cc1C here?
The value was 0%.

What about the Z score of the same compound?
Its Z score is -0.04.

How did the “% Inhibition” value turn out when O=C(N[C@@H]1C[C@H]2OCC[C@@H]12)c1ccon1 was run?
Its value is -5%.

And the Z score?
The Z score was 0.47.

Which “% Inhibition” value does the source give for COc1c(C(=O)Nc2cccc(F)c2)oc2ccc(NC(=O)Cc3ccccc3C)cc12 here?
Its value is 0%.

What about the Z score of the same compound?
The Z score was -0.04.

CN(Cc1cccc(Cl)c1)Cc1cc(=O)n2ncnc2[nH]1 was tested. Which “% Inhibition” value did it give?
The value was -9%.

What about the Z score of the same compound?
Its Z score is 1.31.

With COc1ccc(CNC(=O)c2cccc(Oc3cc(-c4ccc(F)cc4)ncn3)c2)c(OC)c1 as the compound, how does the “% Inhibition” value read?
The value was -5%.

What about the Z score of the same compound?
The Z score was 0.67.

How did the “% Inhibition” value turn out when COc1cccc(-c2cc(O)cc(CC[C@H]3CCCCN3)c2)n1 was run?
Its value is 80%.

What about the Z score of the same compound?
The Z score was -13.26.

Which “% Inhibition” value does the source give for Cc1ccccc1CNC(=O)N1CC[C@@](O)(C2CCOCC2)[C@H](C)C1 here?
The value was -15%.

What about the Z score of the same compound?
The Z score was 1.99.

With Cc1ccc(S(=O)(=O)NCC2(N)CCC2)s1 as the compound, how does the “% Inhibition” value read?
The value was -1%.

And the Z score?
Its Z score is 0.17.

For CC(=O)N1CCN(c2cc(C3CC(O)C3)ncn2)CC1 (stereo not drawn), which “% Inhibition” value is on record?
Its value is -13%.

And the Z score?
Its Z score is 1.75.

Which results are given for O=c1ccc(-c2ccccc2)nn1Cc1coc(-c2ccc(Br)cc2)n1?
% Inhibition: -43%; Z score: 5.04

How did the “% Inhibition” value turn out when CC(=O)N1CCCCC1CC(=O)N1CCCCC1Cn1cc(C)cn1 (stereo not drawn) was run?
The value was 9%.

What about the Z score of the same compound?
The Z score was -1.2.

How did the “% Inhibition” value turn out when COc1ccc(NC(=O)Cc2nnc(-c3ccc4ncccc4c3)o2)c(C)c1 was run?
Its value is -12%.

What about the Z score of the same compound?
The Z score was 1.19.

For CC(CCc1cccc(F)c1)C(=O)N1CCCC(CCC(=O)O)C1 (stereo not drawn), which “% Inhibition” value is on record?
Its value is 2%.

And the Z score?
The Z score was -0.31.

For CCN1C(=O)C(=O)N(CN2CCc3cc(OC)c(OC)cc3[C@@H]2c2ccccc2)C1=O, which “% Inhibition” value is on record?
The value was -1%.

What about the Z score of the same compound?
Its Z score is 0.23.

For c1coc(CNc2nc(Nc3cccc4ccccc34)nc3ccccc23)c1, which “% Inhibition” value is on record?
Its value is 40%.

What about the Z score of the same compound?
Its Z score is -3.65.
